Key:
[1] = biological target: biotinylated recombinant human CLL-1 extracellular domain protein, isoform with lysine at amino acid position 244 (human) (UniProt Q5QGZ9); test: Exp 1 (= Octet, CLL-1-K244 of FIG. 12B)
[2] = biological target: biotinylated recombinant human CLL-1 extracellular domain protein, isoform with glutamine at amino acid position 244 (human) (UniProt Q5QGZ9); test: Exp 2 (= Blitz, CLL-1-Q244 of FIG. 12B)
[3] = biological target: biotinylated recombinant human CLL-1 extracellular domain protein, isoform with glutamine at amino acid position 244 (human) (UniProt Q5QGZ9); test: BLItz, 1:1 model (Q244 per FIG. 12B)

B1: Anti-CLL-1 Binder Clone 5 (scFv, not shown: small tags and cut ends)
scFv: [no letters for about 100 residues]GGGGSGGGGSGGGGSQVQLVESGGGVVQPGRSLRLSCAASGFTFSSYGMHWVRQAPGKGLEWVAFISHDGSNKYYADSVKGRSTISRDNSKSTLFLQMNSLRDEDTAVYFCAREGQLTTSWDFFDYWGHGTLVTVSS
B1 showed a Kd [1] of 5.37 nM, a Kd [2] of 20 nM and a Kd [3] of 20 nM. For the same binder, the koff [3] was 0.0015 s⁻¹ and the kon [3] was 72000 M⁻¹ s⁻¹.

B2: Anti-CLL-1 Binder Clone 39 (scFv, not shown: small tags and cut ends)
scFv: [no letters for about 100 residues]GGGGSGGGGSGGGGSQVQLVQSGAEVKKPGASVKVSCKASGYTFTGYYMHWVRQAPGQGLEWMGWMNPSSGNTGYAHEFQGRVTMTRNTSTGTAYMELSGLRSEDTAVYYCARGDTGDSFDYWGQGTLVTVSS
For B2, the Kd [1] was 2.32 nM, the Kd [2] was 19 nM and the Kd [3] was 19 nM. It also gave a koff [3] of 0.0011 s⁻¹ and a kon [3] of 59000 M⁻¹ s⁻¹.

From patent US20250333515A1
